For 30 compounds, activity change, negative = inhibition results are on record in PubChem BioAssay AID1745853 (National Center for Advancing Translational Sciences (NCATS), 2022).

Molecules are shown by their SMILES. The list shows a part of the results. The main result of the screen is listed elsewhere. These columns were measured beside it and carry no call. Square brackets hold non-standard residues; d marks the D form. Peptide text beside a SMILES is read from it. Ala(indol-2-yl) = N[C@@H](Cc1cc2ccccc2[nH]1)C(=O)O; Aib = CC(C)(N)C(=O)O

What all share (test): Primary Screen for Target Class Profiling of Small Molecule Inhibitors of Methyltransferases
Assay [1] has as its target Glycine N-methyltransferase (Homo sapiens) (UniProt Q14749). The following applies: purified enzyme, MTase-Glo SAH luminescence; measured here: GNMT inhibition; at 40 µM; stronger effect = lower value. A digest of the protocol: (§1)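 Each enzyme was assayed with SAM and its substrate. SAH formation detected by MTase-Glo luminescence; single-point 40 uM screen[…].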

Assay [2] deals with Guanidinoacetate N-methyltransferase (Homo sapiens) (UniProt Q14353). The following applies: purified enzyme, MTase-Glo SAH luminescence; measured here: GAMT inhibition; at 40 µM; stronger effect = lower value. An outline of the steps: as §1
Assay [3] deals with Histamine N-methyltransferase (Homo sapiens) (UniProt P50135). The following applies: purified enzyme, MTase-Glo SAH luminescence; measured here: HNMT inhibition; at 40 µM; stronger effect = lower value. An outline of the steps:
as §1

For assay [4], the target named is Nicotinamide N-methyltransferase (Homo sapiens) (UniProt P40261). Conditions: purified enzyme, MTase-Glo SAH luminescence; measured here: NNMT inhibition; at 40 µM; stronger effect = lower value. An outline of the steps:
as §1

Assay [5] addresses Phenylethanolamine N-methyltransferase (Homo sapiens) (UniProt P11086). Conditions: purified enzyme, MTase-Glo SAH luminescence; measured here: PNMT inhibition; at 40 µM; stronger effect = lower value. An outline of the steps: as §1
On the % scale 0 is the no-effect control and ±100 the full control effect.

`CN(C)c1ccc(C2c3cccn3-c3ccccc3CN2C(=O)NCc2ccc(F)cc2)cc1` (stereo not drawn): the activity change, negative = inhibition in assay [1] turned out to be 11.9%; in assay [2] it was 0%; in assay [3], 3.93%; in assay [4], 3.18%; in assay [5] it was 6.75%.

In the case of `CCOc1ccc(C2c3cccn3-c3ccccc3CN2C(=O)Nc2cc(Cl)ccc2C)cc1` (stereo not drawn), the activity change, negative = inhibition in assay [1] was 0.934%; in assay [2] it was 0%; in assay [3], 7.08%; in assay [4] it was 0.396%; in assay [5], 7.28%.

On to `Oc1ccc2c3c1O[C@H]1c4[nH]c5c(c4C[C@@]4(O)[C@@H](C2)N(CC2CC2)CC[C@]314)C[C@@]1(O)[C@H]2Cc3ccc(O)c4c3[C@@]1(CCN2CC1CC1)[C@H]5O4`, for which the activity change, negative = inhibition in assay [1] is 6.97%; in assay [2] it was 14.1%; in assay [3], -36.4%; in assay [4], -8.1%; in assay [5] it was -0.406%.

Regarding `CCCCc1ccc(C(=O)O)nc1`, the activity change, negative = inhibition in assay [1] is 3.47%; in assay [2], 6.73%; in assay [3], 4.99%; in assay [4], -1.77%; in assay [5], 9.65%.

Turning to `CC[C@@]1(O)C(=O)OCc2c1cc1n(c2=O)Cc2cc3c(OC)cccc3nc2-1`, the activity change, negative = inhibition in assay [1] is -7.93%; in assay [2], -10.5%; in assay [3], 0.602%; in assay [4], -19.5%; in assay [5], -13.1%.

As for `CC(C)CCNC(=O)N1Cc2ccccc2-n2cccc2C1c1cccs1` (stereo not drawn), the activity change, negative = inhibition is 1.45% in assay [1]; 0.555% in assay [2]; -0.882% in assay [3]; -2.44% in assay [4]; -2.36% in assay [5].

Turning to `CN(C)[C@@H]1C(=O)C(C(N)=O)=C(O)[C@@]2(O)C(=O)C3=C(O)c4c(O)ccc(Cl)c4[C@@](C)(O)C3C[C@@H]12` (stereo partly drawn), the activity change, negative = inhibition in assay [1] was -11.1%; in assay [2] it was 12%; in assay [3], 0.159%; in assay [4], -1.65%; in assay [5], -2.6%.

`COc1cccc(NC(=O)N2Cc3ccccc3-n3cccc3C2c2ccc(OC)c(OC)c2)c1` (stereo not drawn): the activity change, negative = inhibition in assay [1] stood at 15.6%; in assay [2] it was 2.03%; in assay [3], 9.57%; in assay [4], 6.11%; in assay [5], 9.33%.

For the compound `COc1cccc(CNC(=O)N2Cc3ccccc3-n3cccc3C2c2ccc(OC)c(OC)c2)c1` (stereo not drawn), the activity change, negative = inhibition in assay [1] is 6.51%; in assay [2], 0.709%; in assay [3], 0.308%; in assay [4], -0.056%; in assay [5] it was 5.3%.

For the compound `Cc1cnc(C2CC2)n1C1CCNCC1`, the activity change, negative = inhibition in assay [1] is -1.19%; in assay [2] it was -3.6%; in assay [3], -23.1%; in assay [4], -3.53%; in assay [5] it was -4.7%.

Turning to `CN1C(=O)CN=C(c2ccccc2Cl)c2cc(Cl)ccc21`, the activity change, negative = inhibition in assay [1] is 5.05%; in assay [2] it was 3.82%; in assay [3], 6.18%; in assay [4], -20.2%; in assay [5], -0.556%.

`COC(=O)CCNC(=O)N1Cc2ccccc2-n2cccc2C1c1cccc(Cl)c1` (stereo not drawn): the activity change, negative = inhibition in assay [1] was 6.6%; in assay [2], 0.988%; in assay [3], -3.22%; in assay [4] it was -0.313%; in assay [5], 5.79%.

On to `COc1ccc(C2c3cccn3-c3ccccc3CN2C(=O)Nc2ccc(Cl)cc2)cc1OC` (stereo not drawn), for which the activity change, negative = inhibition is 7.71% in assay [1]; 1.08% in assay [2]; 4.32% in assay [3]; -1.11% in assay [4]; 4.42% in assay [5].

Take `C=CCN1CCC23c4c5ccc(O)c4O[C@H]2C(=O)CC[C@@]3(O)C1C5` (stereo partly drawn): the activity change, negative = inhibition in assay [1] amounted to 0.225%; in assay [2], 15.5%; in assay [3], 6.34%; in assay [4] it was 0.298%; in assay [5] it was 6%.

On to `Cc1ccc(C2c3cccn3-c3ccccc3CN2C(=O)Nc2ccc3c(c2)OCCO3)cc1` (stereo not drawn), for which the activity change, negative = inhibition is 7.18% in assay [1]; 0% in assay [2]; 5.52% in assay [3]; 4.91% in assay [4]; 3.95% in assay [5].

Regarding `CCC1c2cccn2-c2ccccc2CN1C(=O)Nc1ccc(F)cc1` (stereo not drawn), the activity change, negative = inhibition was 0.291% in assay [1]; 0.947% in assay [2]; -8.52% in assay [3]; -1.52% in assay [4]; -0.882% in assay [5].

Regarding `Cc1ccccc1C1c2cccn2-c2ccccc2CN1C(=O)Nc1ccc(F)cc1` (stereo not drawn), the activity change, negative = inhibition in assay [1] was 1.65%; in assay [2], 0%; in assay [3], -1.96%; in assay [4] it was -4.38%; in assay [5], -0.519%.

Turning to `C[C@H](NC(=O)Cc1cc(F)cc(F)c1)C(=O)N[C@@H]1N=C(c2ccccc2)c2ccccc2N(C)C1=O`, the activity change, negative = inhibition in assay [1] is -2.02%; in assay [2], -7.56%; in assay [3] it was -5.39%; in assay [4], -25.4%; in assay [5], -13.6%.

Turning to `c1cc2c(cc1C1OC[C@@H]3C(c4ccc5c(c4)OCO5)OC[C@H]13)OCO2` (stereo partly drawn), the results for the activity change, negative = inhibition in assay [2], in assay [4] and in assay [5] were -5.55%, -11.2% and -1.6%, respectively.

On to `CSc1ccc(C2c3cccn3-c3ccccc3CN2C(=O)NC2CCCC2)cc1` (stereo not drawn), for which the activity change, negative = inhibition was -2% in assay [1]; 1.68% in assay [2]; 0.185% in assay [3]; -7.15% in assay [4]; -0.081% in assay [5].

Regarding `C[N+](C)(C)CC#CCOC(=O)Nc1cccc(Cl)c1`, the activity change, negative = inhibition in assay [1] was 0.858%; in assay [2], 15.4%; in assay [3], 5.39%; in assay [4], 0.581%; in assay [5], 9.94%.

For `CC(C)(NC(=O)[C@@H](N)Cc1ccc(O)cc1)C(=O)N[C@@H](Cc1cc2ccccc2[nH]1)C(=O)N[C@@H](Cc1ccccc1)C(=O)O` (H-Y[Aib][Ala(indol-2-yl)]F-OH), the activity change, negative = inhibition is 3.08% in assay [1]; 1.57% in assay [2]; 8.44% in assay [3]; -9.4% in assay [4]; 0.272% in assay [5].

Turning to `CCC1c2cccn2-c2ccccc2CN1C(=O)NCc1ccc(C)cc1` (stereo not drawn), the activity change, negative = inhibition in assay [1] is 6.99%; in assay [2], 0%; in assay [3], 3.53%; in assay [4], -1.86%; in assay [5], 5.41%.

On to `CCc1ccc(C2c3cccn3-c3ccccc3CN2C(=O)Nc2cc(OC)ccc2OC)cc1` (stereo not drawn), for which the activity change, negative = inhibition in assay [1] was 4.68%; in assay [2], 0%; in assay [3], -1.49%; in assay [4], 1.13%; in assay [5], 2.06%.

In the case of `O=C1NCN(c2ccccc2)C12CCN(CC1COc3ccccc3O1)CC2` (stereo not drawn), the activity change, negative = inhibition was -4.22% in assay [1]; 9.05% in assay [2]; 5.06% in assay [3]; -7.47% in assay [4]; 1.42% in assay [5].

On to `CC(O)(c1ccccc1)C(Cc1ccc(Cl)cc1)n1cncn1` (stereo not drawn), for which the activity change, negative = inhibition is -0.472% in assay [1]; -6.79% in assay [2]; -1.68% in assay [3]; -15.6% in assay [4]; -11.6% in assay [5].

Take `Oc1ccc2c3c1O[C@H]1c4[nH]c5c(N=C=S)cccc5c4C[C@@]4(O)[C@@H](C2)N(CC2CC2)CC[C@]314`: the activity change, negative = inhibition in assay [1] is -5.25%; in assay [2], -9.9%; in assay [3], -17.4%; in assay [4], -30.6%; in assay [5], -11.5%.

For the compound `CCC(C)(OC(C)=O)C(=O)O[C@H]1[C@H](OC(C)=O)C[C@@H]2[C@@](C)([C@@H]3C[C@H]4C=CO[C@H]4O3)[C@H](C)C[C@H](OC(C)=O)[C@@]2(COC(C)=O)[C@@]12CO2` (stereo partly drawn), the activity change, negative = inhibition in assay [1] was 0.214%; in assay [2], 8.94%; in assay [3], 11.7%; in assay [4], -4.06%; in assay [5] it was 4.66%.

`COc1ccccc1NC(=O)N1Cc2ccccc2-n2cccc2C1c1ccccc1` (stereo not drawn): the activity change, negative = inhibition in assay [1] was 3.92%; in assay [2], 0%; in assay [3] it was -0.576%; in assay [4], -0.882%; in assay [5] it was 4.55%.

As for `CCCNC(=O)N1Cc2ccccc2-n2cccc2C1c1ccc(OC)cc1` (stereo not drawn), the activity change, negative = inhibition in assay [1] is 4.07%; in assay [2], -0.816%; in assay [3] it was 2.92%; in assay [4] it was -11.1%; in assay [5], -1.08%.
